Measurements: publication PMC10588329 (Protein Science : A Publication of the Protein Society, 2023)

Biological target: the molecule itself
Assay: mass photometry

B1: Human wild-type CaMKII α (CaMKII^WT) (enzyme)
chain: not shown
**Q.** How did the “stoichiometry N” value turn out when B1 was run?
**A.** 12 subunits
